Sequences with one replicate were seen in a single cluster, so their values are uncertain.
Test system: ATP
Experiment: switch fluorescence ratio, 500 uM ATP over buffer (Cy3 cluster intensity, sum of 5 cycles each) (fold (ratio)); higher = stronger signal-on switching upon ATP binding; sequences stand for … in TCGTCGGCAGCGTCAGATGTGTATAAGAGACAGTTTTTTTTTTTTTTTTTTTTTTTTT…TC
Settings: aptamer strand: ATP DNA aptamer (quencher-CACCTGGGGGAGTATTGCGGAGGAAGG + anchor), 100 nM annealed; ATP concentration: 500 uM; one replicate
How it was run: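 The quencher-labelled ATP aptamer, at 100 nM, was annealed to Cy3-labelled switching-strand clusters on a modified Illumina MiSeq flow-cell. The clusters were imaged in selection buffer, then after 15 min with 500 uM ATP at 22 °C, and this buffer/ATP cycle ran five times with NaOH stripping and re-annealing between runs. Per-cluster fluorescence ratios, summed target-cycle over summed buffer-cycle Cy3 intensity, were averaged per switch-domain sequence. Clusters outside 100-1000 RFU were excluded.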
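Also: ATP exposure 15 min at 22 °C before imaging.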

TCCTTGAGGA
switch fluorescence ratio: 0.945

GATGTATTTC
switch fluorescence ratio: 0.95

TCTAAATGAA
switch fluorescence ratio: 1.01

ATTCGCAGTA
switch fluorescence ratio: 1.03

AACTGAGCAC
switch fluorescence ratio: 1.1

GGTAGAGCGG
switch fluorescence ratio: 0.975

CGGGTGGATC
switch fluorescence ratio: 1.01

CACCGAGTCA
switch fluorescence ratio: 1.02

GCACTCTCAA
switch fluorescence ratio: 1.14

GAGCATGGTG
switch fluorescence ratio: 0.984

CCTGGTCGGG
switch fluorescence ratio: 1.01

CGATTTCTGA
switch fluorescence ratio: 1.02

CGGTCCTGC
switch fluorescence ratio: 1.05

TATCGGGAAT
switch fluorescence ratio: 0.973

AGTGGAATAC
switch fluorescence ratio: 2.55

AATTGGCTAA
switch fluorescence ratio: 1.02

AAGAGTTAAT
switch fluorescence ratio: 0.986

GATATTACTC
switch fluorescence ratio: 1.08

TTCCAGGTAG
switch fluorescence ratio: 1.76

AATTTGGCGG
switch fluorescence ratio: 1

TGTCAATGTT
switch fluorescence ratio: 1

CATGACGGGA
switch fluorescence ratio: 1.06

TTCTGAGTCG
switch fluorescence ratio: 1.03

CGGGAATGTT
switch fluorescence ratio: 1

ATGCCAGCAC
switch fluorescence ratio: 1.05

AGAGCGTGAT
switch fluorescence ratio: 0.984

CTGTATGGGG
switch fluorescence ratio: 0.984

AACTCAAGCG
switch fluorescence ratio: 1.01

GCGGGGGGC
switch fluorescence ratio: 0.968

GCTTGGCACT
switch fluorescence ratio: 0.987

AGTCCGTTTT
switch fluorescence ratio: 1

GATCTGTCTA
switch fluorescence ratio: 1.01

GCGATTCGTG
switch fluorescence ratio: 0.962

TCCCAGAGA
switch fluorescence ratio: 0.976

GTTGAGTCTA
switch fluorescence ratio: 1.01

AATCTGACTT
switch fluorescence ratio: 0.973

TTTCCGTTTA
switch fluorescence ratio: 0.93

CAATTGGCTC
switch fluorescence ratio: 0.927

CTTGGTACGT
switch fluorescence ratio: 1.04

GTCACAATTA
switch fluorescence ratio: 0.995

TAGTAAAGCC
switch fluorescence ratio: 0.958

CCTTACTGTG
switch fluorescence ratio: 1.09

GGGAAGCTAA
switch fluorescence ratio: 1.02

GCAAGAGGTA
switch fluorescence ratio: 1.03

ATCAAGGGAA
switch fluorescence ratio: 1.08

AACTTGGGT
switch fluorescence ratio: 0.939

TGCGCTGATG
switch fluorescence ratio: 0.999

TAATTCTAGG
switch fluorescence ratio: 1.02

GGTGCCGGCG
switch fluorescence ratio: 1.05

TACTCCACGA
switch fluorescence ratio: 2.33

CACCAACTA
switch fluorescence ratio: 1.19

ACCAGTCATC
switch fluorescence ratio: 1.04

TATCATCTAC
switch fluorescence ratio: 1.04

AAAGTCGCGG
switch fluorescence ratio: 0.997

TGATGCAAG
switch fluorescence ratio: 1.01

CACCTTCGGC
switch fluorescence ratio: 1.12

TAGGTTGGAG
switch fluorescence ratio: 0.994

CGGGGTTCAG
switch fluorescence ratio: 1.01

CTGATTTTGT
switch fluorescence ratio: 1

CTCCACGCCC
switch fluorescence ratio: 1.67

CTATATCCTT
switch fluorescence ratio: 1

CCTAAATCGT
switch fluorescence ratio: 1.02

ATTATCTCGG
switch fluorescence ratio: 1.01

ATGAGATCTC
switch fluorescence ratio: 0.964

TGGATCTCGT
switch fluorescence ratio: 1

CGGCCTAGA
switch fluorescence ratio: 0.969

GGGGACATGT
switch fluorescence ratio: 1.01

AGCTTACGAC
switch fluorescence ratio: 3.94

TGGGTGTGAC
switch fluorescence ratio: 0.981

AATGTTACTA
switch fluorescence ratio: 1.03

CCCTTCGGAG
switch fluorescence ratio: 1.16

TGCAATGAGT
switch fluorescence ratio: 1.04

GGCTGCTCGC
switch fluorescence ratio: 0.982

CATATTGGA
switch fluorescence ratio: 1.02

CGACTCAGAA
switch fluorescence ratio: 1.07

CTTTGGGAAT
switch fluorescence ratio: 0.984

GGTTTTGCTC
switch fluorescence ratio: 0.989

CGCATTGAGG
switch fluorescence ratio: 0.998

TAATGCTTAG
switch fluorescence ratio: 1.02

GCTCGTCTAC
switch fluorescence ratio: 1.04

TCAAACCGTA
switch fluorescence ratio: 1

GTATAAGATA
switch fluorescence ratio: 1.02

TCACTATAA
switch fluorescence ratio: 1.07

CGCGGGAGGT
switch fluorescence ratio: 0.976

CATAATTCAC
switch fluorescence ratio: 1.06

TAATGGTGGC
switch fluorescence ratio: 0.979

CAACAGATAT
switch fluorescence ratio: 1.01

TACCATCGTT
switch fluorescence ratio: 1

GCGAGAAGGA
switch fluorescence ratio: 1.05

AGGTTGCAGG
switch fluorescence ratio: 1.05

AGTTTACCAT
switch fluorescence ratio: 1.01

TGCCTCCACT
switch fluorescence ratio: 1.14

CTCGTCTGTT
switch fluorescence ratio: 0.995

CACTATTAAT
switch fluorescence ratio: 1.02

TTCGCGCCTG
switch fluorescence ratio: 1.01

CACTTCTCCG
switch fluorescence ratio: 2.25

CAAAGGTCGA
switch fluorescence ratio: 0.948

AAATCGGATC
switch fluorescence ratio: 1.01

ACAGATGGTA
switch fluorescence ratio: 1.01

GAGCACCCGT
switch fluorescence ratio: 1.01

GGTGCTGCAA
switch fluorescence ratio: 1.25

TATGCGGGAT
switch fluorescence ratio: 1

TAGCTCGCTG
switch fluorescence ratio: 0.969

TTCTACCGC
switch fluorescence ratio: 1.25

AGCATTTTG
switch fluorescence ratio: 1.02

TTGCGTAAGT
switch fluorescence ratio: 1.02

TAGTATTAGT
switch fluorescence ratio: 0.976

CTGAAGAATG
switch fluorescence ratio: 0.991

TCGAAAGTCG
switch fluorescence ratio: 0.974

TTTCTGAAGG
switch fluorescence ratio: 0.972

TGGATTGTTA
switch fluorescence ratio: 1.33

CCGTACAAAG
switch fluorescence ratio: 1.17

ATCTCTGGGC
switch fluorescence ratio: 0.931

GGTATCCACG
switch fluorescence ratio: 1.05

TGCTCCCGGG
switch fluorescence ratio: 1.13

TACGGGGGC
switch fluorescence ratio: 1.01

AACGAGAGAC
switch fluorescence ratio: 1.07

GGGGATTCAC
switch fluorescence ratio: 1.01

GCGCCGCTGA
switch fluorescence ratio: 1.51

GGGTGGCCTT
switch fluorescence ratio: 1.05

AAACGTGTCT
switch fluorescence ratio: 1.05

ATGAGACTGG
switch fluorescence ratio: 1.05

CGATTATTTA
switch fluorescence ratio: 0.966

GCCCCTGGGC
switch fluorescence ratio: 1

AAATTTGATC
switch fluorescence ratio: 1

TCCCCTTGAA
switch fluorescence ratio: 1.39

GGCAACAGAT
switch fluorescence ratio: 1.06

AATTATGGGT
switch fluorescence ratio: 1.03

GATGTAAAGT
switch fluorescence ratio: 1.02

AAAAAGAGAT
switch fluorescence ratio: 0.978

CAATAACAAG
switch fluorescence ratio: 1.02

CCGAGCGAAG
switch fluorescence ratio: 2.75

ACCACTCT
switch fluorescence ratio: 1.01

GAGGCATCAG
switch fluorescence ratio: 1.02

ATGAGAGTGC
switch fluorescence ratio: 1.02

GCTCTCATTC
switch fluorescence ratio: 1.13

ACCATTAAGA
switch fluorescence ratio: 1.01

GCACCCGCGG
switch fluorescence ratio: 0.939

CAGCACCGGT
switch fluorescence ratio: 0.993

CGGGCGAGTC
switch fluorescence ratio: 0.986

TTTTACTTAT
switch fluorescence ratio: 1.05

GGTTGGGTCT
switch fluorescence ratio: 0.991

GGGTGTGCT
switch fluorescence ratio: 0.99

TGCCACGCAG
switch fluorescence ratio: 0.985

TTGGTACCCT
switch fluorescence ratio: 1.02

TGTTTCAATC
switch fluorescence ratio: 1.04

GCACCAACGG
switch fluorescence ratio: 1.11

CTCCGAATTA
switch fluorescence ratio: 4.24

CACGCTACGA
switch fluorescence ratio: 1.64

GCGTGCTTTC
switch fluorescence ratio: 1.04

TTTTGCATCT
switch fluorescence ratio: 1.03

GTAGGAGCAG
switch fluorescence ratio: 1.05

ACTTTCTTTG
switch fluorescence ratio: 0.967

AATTGACTAT
switch fluorescence ratio: 1.03

GTTTCCGTA
switch fluorescence ratio: 0.974

GCAGTCCAGT
switch fluorescence ratio: 0.984

TGTCATTTCT
switch fluorescence ratio: 1.03

Reference: the supplement of paper PMC10126150
